Results from the supplement of paper PMC3334620.
In all, about 33,000 sequences were measured (“E-score (-0.5 to 0.5)”: median about -0.035, highest 2% from about 0.35 on). The list shows a part of the results.

The sequences below were run against T1, Pdr3 (UniProt P33200) (assay: PBM E-score (8-mer binding enrichment) (E-score (-0.5 to 0.5)); higher = stronger / more preferred TF binding; most listed sequences are background and not binding sites). Details: protein concentration: 200 nM; construct: GST-full length.
T1 sequence: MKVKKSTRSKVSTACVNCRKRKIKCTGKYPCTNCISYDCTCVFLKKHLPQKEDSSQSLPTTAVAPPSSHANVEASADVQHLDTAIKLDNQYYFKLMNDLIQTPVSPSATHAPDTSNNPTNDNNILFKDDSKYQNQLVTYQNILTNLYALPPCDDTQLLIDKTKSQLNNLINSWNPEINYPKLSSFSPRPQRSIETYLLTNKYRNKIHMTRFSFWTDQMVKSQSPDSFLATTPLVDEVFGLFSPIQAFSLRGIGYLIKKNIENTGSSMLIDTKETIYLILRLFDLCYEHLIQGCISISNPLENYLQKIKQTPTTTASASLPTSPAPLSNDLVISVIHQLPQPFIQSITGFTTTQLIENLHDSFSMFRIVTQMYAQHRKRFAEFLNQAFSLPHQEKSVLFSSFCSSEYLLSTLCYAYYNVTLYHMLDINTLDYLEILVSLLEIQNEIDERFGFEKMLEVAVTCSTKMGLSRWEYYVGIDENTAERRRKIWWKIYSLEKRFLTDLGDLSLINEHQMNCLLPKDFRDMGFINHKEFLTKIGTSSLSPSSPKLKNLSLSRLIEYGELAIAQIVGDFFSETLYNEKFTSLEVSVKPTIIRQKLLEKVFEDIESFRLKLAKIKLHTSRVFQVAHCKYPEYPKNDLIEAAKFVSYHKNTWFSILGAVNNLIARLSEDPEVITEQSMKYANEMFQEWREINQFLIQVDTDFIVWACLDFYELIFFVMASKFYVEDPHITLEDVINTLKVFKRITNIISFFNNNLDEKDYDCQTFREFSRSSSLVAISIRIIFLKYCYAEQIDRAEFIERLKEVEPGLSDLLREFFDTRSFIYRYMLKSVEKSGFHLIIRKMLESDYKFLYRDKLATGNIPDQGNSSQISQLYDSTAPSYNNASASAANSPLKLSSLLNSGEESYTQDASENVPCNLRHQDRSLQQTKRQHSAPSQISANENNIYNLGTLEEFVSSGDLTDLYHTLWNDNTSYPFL
How it was run: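 PURExpress in vitro transcription/translation supplied GST-tagged yeast transcription factors, either full-length or DNA-binding domain. Applied at about 100-200 nM to universal all-10-mer Agilent arrays double-stranded by primer extension, the bound protein was detected with fluorescent anti-GST. E-scores, modified Wilcoxon-Mann-Whitney statistics, were given by the Universal PBM Analysis Suite to ungapped eight-base words pooled with their reverse complements after masliner normalisation.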

Row | Sequence | PBM E-score
1 | AGAACTAC | -0.099
2 | CACCGCTG | -0.151
3 | GAAGCCAA | -0.0743
4 | ACAAATGT | -0.0604
5 | CAGCAAGG | -0.131
6 | GAGGAAGA | 0.0527
7 | GTTCCATA | 0.0937
8 | CAGAATTA | 0.0375
9 | CAGTGGCA | -0.193
10 | AGGGATGA | -0.0804
11 | ATGAGTTA | -0.178
12 | ATACTAGA | 0.0401
13 | TTCCAAAA | -0.177
14 | CGCGGGTA | 0.363
15 | AACGACTG | -0.194
16 | AGCTGCAT | -0.169
17 | CACCTACG | -0.107
18 | AAATTTCC | 0.202
19 | AGTAGGAT | -0.147
20 | ACGTGTAT | -0.217
21 | AACACTAG | -0.0882
22 | ATACGGCA | 0.0009

Row | Sequence | PBM E-score
23 | CGAAGTAA | 0.0812
24 | GCGATACA | -0.127
25 | ATGGCCCC | -0.0124
26 | ACATCTGA | -0.299
27 | ATATCAAT | 0.0499
28 | CCGCGCTA | 0.3
29 | ATCCTCTG | -0.0407
30 | AATTGCAT | 0.0305
31 | CTAGATAA | -0.209
32 | TGAAACAA | -0.00937
33 | TACGCAGA | -0.156
34 | AACCTCCG | 0.219
35 | CGTAAGAC | -0.21
36 | GCGTCCCA | -0.0521
37 | AAAGCCCT | -0.232
38 | TAGTATAA | -0.0373
39 | ATCTGGGG | -0.109
40 | ACTGTGCC | -0.117
41 | AAGATCCG | 0.252
42 | GGTTTAGA | -0.0817
43 | CTAACGAC | -0.311
44 | CGAGGCCC | 0.102

Row | Sequence | PBM E-score
45 | GGACAACC | 0.0553
46 | ATCCATGC | 0.0353
47 | CCAACGTA | -0.334
48 | CCCTGAGA | -0.165
49 | CCAACCCC | -0.0805
50 | ACCATTAC | 0.056
51 | CAACGTGG | -0.135
52 | TGCACCCA | -0.12
53 | CGAAAGCA | 0.0422
54 | GACTTCTC | -0.0359
55 | CATTGTCA | -0.0357
56 | ATAGGGTC | -0.0192
57 | AGGTAGAC | -0.045
58 | CTCGCGTA | -0.143
59 | GATGTGGC | -0.115
60 | GTGTACCA | -0.273
61 | CCAGGACC | -0.0853
62 | ATTCACTA | 0.00985
63 | TATATCGA | 0.154
64 | GAGCGGAC | 0.0792
65 | CCTCCCTC | 0.0651
66 | GCAACTCC | 0.0673

Row | Sequence | PBM E-score
67 | ATCAGATG | -0.287
68 | GAACCCAA | -0.118
69 | ATTTGACG | 0.0295
70 | GTATGGGA | -0.118
71 | GGATCTCA | 0.0621
72 | CGTGATAC | -0.0674
73 | AATGCGGC | 0.0245
74 | CGGTGGTA | -0.021
75 | GTAGGTCA | -0.107
76 | GAGTTGGA | -0.0627
77 | GACATCCA | -0.199
78 | GCCAATCA | -0.245
79 | GAGGCAGC | -0.0658
80 | CGCTAAGC | 0.00063
81 | AGGACTGA | -0.137
82 | AGTCATTA | -0.37
83 | ACAGAGAC | 0.0215
84 | ACACTCGC | 0.126
85 | GAAATTGC | -0.00669
86 | GGTTACAC | -0.153
